Measurements from paper PMC4336329 (PLoS ONE, 2015).
Screen size: about 310,000 compounds; about 2,200 (0.71%) showed an effect of 50% or more. The effect is printed as a negative number. Some of the results follow. Where a SMILES comes first, the peptide text is derived from it. [ ]: non-standard residue; d: D form. The star is where a group is joined. ξ: configuration not given here. ξF = NC(Cc1ccccc1)C(=O)O; Cbz = O=C(OCc1ccccc1)*

target: human ether-à-go-go-related gene (hERG) potassium channel (human, UniProt Q12809); test: primary screen, population patch clamp on CHO cells stably expressing hERG
Sequence (Q12809 whole entry, looked up): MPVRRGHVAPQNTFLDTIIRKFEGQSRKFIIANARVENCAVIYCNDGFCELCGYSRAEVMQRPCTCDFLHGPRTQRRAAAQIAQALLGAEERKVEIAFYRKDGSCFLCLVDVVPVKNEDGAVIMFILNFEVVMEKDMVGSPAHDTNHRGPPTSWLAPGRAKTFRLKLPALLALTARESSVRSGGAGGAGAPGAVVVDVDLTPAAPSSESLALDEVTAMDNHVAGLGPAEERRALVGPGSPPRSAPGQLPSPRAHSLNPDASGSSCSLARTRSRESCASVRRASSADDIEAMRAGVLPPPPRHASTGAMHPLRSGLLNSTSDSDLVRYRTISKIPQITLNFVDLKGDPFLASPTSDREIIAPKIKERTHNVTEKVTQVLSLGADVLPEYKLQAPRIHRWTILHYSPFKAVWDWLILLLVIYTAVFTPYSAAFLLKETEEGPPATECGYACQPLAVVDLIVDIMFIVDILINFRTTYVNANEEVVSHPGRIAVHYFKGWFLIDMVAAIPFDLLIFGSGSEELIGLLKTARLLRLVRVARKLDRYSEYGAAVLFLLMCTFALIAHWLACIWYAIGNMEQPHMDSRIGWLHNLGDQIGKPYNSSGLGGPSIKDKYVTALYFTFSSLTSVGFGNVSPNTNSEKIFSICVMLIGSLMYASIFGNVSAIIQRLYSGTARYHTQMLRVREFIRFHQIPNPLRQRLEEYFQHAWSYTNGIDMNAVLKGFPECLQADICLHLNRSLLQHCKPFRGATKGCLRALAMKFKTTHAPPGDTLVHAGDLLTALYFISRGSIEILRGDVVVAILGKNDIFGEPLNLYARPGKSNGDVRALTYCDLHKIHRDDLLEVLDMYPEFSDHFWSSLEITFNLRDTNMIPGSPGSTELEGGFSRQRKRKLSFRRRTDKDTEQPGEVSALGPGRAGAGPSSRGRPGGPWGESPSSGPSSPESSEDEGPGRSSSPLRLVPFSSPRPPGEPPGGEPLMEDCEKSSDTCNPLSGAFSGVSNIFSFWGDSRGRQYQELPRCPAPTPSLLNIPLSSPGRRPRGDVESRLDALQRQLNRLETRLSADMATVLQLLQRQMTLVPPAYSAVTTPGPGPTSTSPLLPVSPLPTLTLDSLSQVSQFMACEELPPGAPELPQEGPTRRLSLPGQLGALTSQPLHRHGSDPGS

| SMILES | hERG current change (%, negative = inhibition) at 1uM [%] |
| --- | --- |
| Cc1ccc(OCCCCc2c(C)n[nH]c2C)cc1 | 8.88 |
| O=C(Nc1ccc(N2CCOCC2)cc1)c1cccc(-n2cnnc2)c1 | 14.3 |
| CSc1ccc(/C=N/n2c(COc3ccccc3)n[nH]c2=S)cc1 | 8.39 |
| COCCN(CC(=O)Oc1ccccc1P(=O)(OC)OC)Cc1ccccc1 | 7.35 |
| COc1ccccc1CNC(=O)C1=C(C)C(=O)OC12CCC(C)CC2 (stereo not drawn) | 7.11 |
| Cc1cccc(N2C(=O)N3[C@@H]4c5ccccc5OC[C@@H]4[C@@H](c4ccccc4)[C@@]3(C)C2=O)c1 | 4.76 |
| COc1ccc(C2NC(=O)CCC2[N+](=O)[O-])c(OC)c1 (stereo not drawn) | 8.33 |
| CC(C)(CNC(=O)CC1C(=O)NCCN1Cc1cccc(F)c1F)N1CCOCC1 (stereo not drawn) | 35.3 |
| O=C(O)c1cn(Cc2ccccc2Cl)c2ccc(S(=O)(=O)N3CCOCC3)cc2c1=O | -0.124 |
| C#Cc1ccc([C@H]2C=C(C(=O)NCc3nc4ccccc4[nH]3)O[C@@H](OCC)[C@@H]2CCCO)cc1 | -1.27 |
| CCSc1ccc(C(=O)Nc2cccc(C)n2)cc1[N+](=O)[O-] | -3.22 |
| O=C(C1=C(O)C(=O)N(c2ncccn2)C1c1cccs1)c1ccco1 (stereo not drawn) | 18.5 |
| CCOC(=O)Cc1nnc(NC(=O)COc2ccc(F)cc2)s1 | 6.68 |
| COc1ccccc1C(=O)NC(=Nc1nc2ccccc2o1)NC(=O)c1ccccc1OC | 12 |
| O=C(CN1C(=O)COc2ccccc21)NNC(=O)Nc1ccccc1F | 2.21 |
| CCOC(=O)CCC(=O)Nc1ccc(S(=O)(=O)N2CCCCC2)cc1 | 1.25 |
| CCOc1ccc(C(=O)Cc2cc(OC)c(OC)cc2[N+](=O)[O-])cc1 | 6.72 |
| Cc1nc(-c2ccccn2)nc(N(C)c2ccccc2)c1Cl | 7.47 |
| O=C(Nc1ccc(F)cc1)c1ccc(NC(=O)C2CCCO2)cc1 (stereo not drawn) | 12 |
| O=C1C2C3C=CC(c4ccccc4)(C2C(=O)N1c1cccc(Cl)c1)C1C(=O)N(c2cccc(Cl)c2)C(=O)C31 (stereo not drawn) | 14.4 |
| COc1cc(/C=N/NC(=O)/C(=C/c2ccccc2)CCO)ccc1O | -7.37 |
| CCC(=NCc1ccccc1)c1c(C(F)(F)F)[nH]n(-c2nc3ccccc3s2)c1=O | 7.12 |

| SMILES | hERG current change (%, negative = inhibition) at 1uM [%] |
| --- | --- |
| O=C(NCc1ccccc1Cl)C1CCC(=O)N(CCCN2CCCC2=O)C1 (stereo not drawn) | 11 |
| CCN(CC)C(=O)COc1ccc(/C(C)=N/NC(=O)c2ccccc2O)cc1 | 5.27 |
| Cc1nn(-c2ccccc2)c(C)c1/C=N/NC(=O)c1cc(-c2ccc(Br)s2)[nH]n1 | -3.09 |
| CCn1c(=O)c2ccccc2n2c(SCC(=O)N3CCCc4ccccc43)nnc12 | 9.6 |
| CCC1(C)Cc2ccccc2-c2nc(-c3ccccc3)oc(=O)c21 (stereo not drawn) | 17.5 |
| CCCCCCCCCOC(=O)C[n+]1csc(CCO)c1C.[Cl-] | 3.14 |
| NC(=O)C1CCCN(C(=O)c2ccc3nc(Cc4cccc(Cl)c4)oc3c2)C1 (stereo not drawn) | 17.5 |
| Cc1cccc(C(=O)NCCC(=O)N2CCc3ccccc3C2)c1 | 9.14 |
| N/C(=N\OC(=O)CC1CCCCC1)c1ccc(Br)cc1 | 8.39 |
| CCC(C)Sc1ccc(-c2nc3cnccn3c2NC2CCCCC2)cc1.O=C(O)C(F)(F)F (stereo not drawn) | 12.6 |
| CCOC(=O)c1ccc(NS(=O)(=O)c2ccc3c(c2)oc(=O)n3C)cc1 | 7.64 |
| Cc1nc(C)c(C(=O)NCc2ccc(Cl)cc2)o1 | -3.81 |
| O=C(O)c1ccc(N2CCN(C(c3ccccc3)c3ccccc3)CC2)c([N+](=O)[O-])c1 | 13 |
| Cc1ccc(C)c(NC(=S)NC(NC(=O)N(C)C)C(Cl)(Cl)Cl)c1 (stereo not drawn) | 2.87 |
| C=CCSc1nnc(NC(=O)C2=COCCO2)s1 | 10.5 |
| Cc1sc(-n2c(C)ccc2C)c(C#N)c1C | 0.797 |
| Cc1ccc2occ(CN3CC4CC(C3)c3cccc(=O)n3C4)c(=O)c2c1 (stereo not drawn) | -36.1 |
| CCN(Cc1cc2cccc(C)c2[nH]c1=O)C(=O)c1ccccc1OC | 0.99 |
| NC(=O)c1ccsc1NC(=O)CCS(=O)(=O)c1ccccc1 | 7.68 |
| NNC(=O)c1cncn1-c1ccc(F)cc1 | 12.3 |
| COc1ccccc1NC(=O)NCCN1CCNC1=O | -3.66 |
| COc1cccc(O)c1CN1CCCC(C(=O)c2ccccc2SC)C1 (stereo not drawn) | -0.41 |

| SMILES | hERG current change (%, negative = inhibition) at 1uM [%] |
| --- | --- |
| CC(C1CC1)N(Cc1ccccc1)C(=O)NC(=O)c1cccc(F)c1 (stereo not drawn) | -2.31 |
| C/C(=N/Nc1nc(C)cc(C)n1)c1ccc(Br)cc1 | 10.1 |
| O=c1c2ccccc2nc(-c2ccc(Cl)cc2)n1C1CCS(=O)(=O)C1 (stereo not drawn) | 12.8 |
| CC(C)CNC(=O)CSc1nc(-c2cccs2)cc(C(F)(F)F)n1 | 0.741 |
| Cc1ccc2c(c1)N(CC(=O)NCc1ccco1)C(=O)CO2 | 0.956 |
| CO[C@@]1(NC(=O)Cc2cccs2)C(=O)N2C(C(=O)[O-])=C(COC(N)=O)CS[C@@H]21.[Na+] | 15.4 |
| O=C(OCc1nnc(-c2ccccc2)o1)c1cccc(S(=O)(=O)N2CCOCC2)c1 | -0.299 |
| COc1cccc(-c2cc(C(=O)Nc3ccc4c(c3)OCO4)no2)c1 | 19.5 |
| O=S(=O)(NCc1ccc(Cl)cc1)c1cccc2cccnc12 | 8.39 |
| CN1C(=O)C(C2c3ccccc3C(=O)N2Cc2ccccc2)C(=O)N(C)C1=O (stereo not drawn) | 3.31 |
| CCOC(=O)CCCSc1nc2sc(C)c(C)c2c(=O)[nH]1 | 19.7 |
| O=C(NCC(c1ccco1)N1CCCC1)c1ccccc1Sc1ccc(C(F)(F)F)cc1[N+](=O)[O-] (stereo not drawn) | 4.07 |
| COc1ccc(NC(=S)NCc2ccccc2)c(OC)c1 | 15.7 |
| O=Cc1coc2c(ccc3ccccc32)c1=O | 8.98 |
| COCCNC(=O)c1ccc(CS(=O)(=O)c2ccccc2C)o1 | 11.1 |
| CCOc1ccccc1N1CCN(C(=O)c2cc(S(=O)(=O)N3CCCCC3)ccc2C)CC1 | 0.805 |
| O=C(C1=C[C@@H](c2csc3ccccc23)C[C@@H](OCCCCO)O1)N1CCN(Cc2ccc3c(c2)OCO3)CC1 | 6.06 |
| COc1ccc(C)cc1NS(=O)(=O)c1ccc2c(c1)N(C)CCO2 | 9.08 |
| O=C(Cc1ccc([N+](=O)[O-])cc1)Nc1ccon1 | 9.48 |
| CCOC(=O)N1CCC2(CC1)C(C#N)=C(N)OC1=C2C(=O)CCC1 | 9.95 |
| O=C(CCCOc1ccc(Br)cc1)NCCc1ccc(OC(F)F)cc1 | -4.05 |
| O=C(c1cc2cc(Br)ccc2o1)N1CCCCC1 | 1.01 |

| SMILES | hERG current change (%, negative = inhibition) at 1uM [%] |
| --- | --- |
| COc1cc(C(=O)N2CCNCC2)cc(OC)c1OC.O=C(O)C(F)(F)F | 15.5 |
| O=C(O)c1cc2c(cc1NC(=O)c1ccccc1C(F)(F)F)OCCCO2 | 9.26 |
| CSC1=NCCN1C(=O)c1ccc2ccccc2c1 | 13.5 |
| CCC1SC(=NC(=O)c2ccc(Cl)c(Cl)c2)NC1=O (stereo not drawn) | 6.6 |
| CS(=O)(=O)N1CCN(c2ccccc2NC(=O)Cc2ccc(Cl)cc2)CC1 | 1.26 |
| COc1cc(/C=C2/C(=O)NN(c3cccc(Cl)c3)C2=O)cc(OC)c1O | 8.86 |
| CC(=O)CC1(O)C(=O)Nc2ccccc21 (stereo not drawn) | 17.1 |
| Cc1cc(C)c(NC(=O)CSc2nnc(CNC(=O)c3ccccc3F)o2)c(C)c1 | 7.46 |
| CCOC(=O)CNC(=O)C(Cc1ccccc1)NC(=O)OCc1ccccc1 (stereo not drawn) (Cbz-[ξF]-Gly-OEt) | -9.79 |
| CCn1cc(CN2CCC(C(=O)Nc3cccc(-c4cccc(F)c4)c3)CC2)cn1 | -29.2 |
| CC(=O)N(C)C1(c2nnnn2CCOC(=O)Nc2cccc3ccccc23)CCCC1 | 2.05 |
| O=C(CCN1C(=O)/C(=C/c2ccccc2)SC1=S)N1CCCCCC1 | 9.27 |
| O=C(O)CCN1C(=O)c2ccc(NC(=O)C(c3ccccc3)c3ccccc3)cc2C1=O | 14.6 |
| COc1cc(OC)c(C(=O)NC2CCCc3ccccc32)cc1OC (stereo not drawn) | 10.2 |
| N#C/C(=C\c1ccc(OC(=O)c2ccc(Br)s2)cc1)c1nc2ccccc2[nH]1 | 11.7 |
| CC1CCN(C(=O)c2ccc3c(c2)OCO3)CC1 | 19.6 |
| CCCCOC(=O)CN1C(=O)c2ccc(C(=O)OCCCC)cc2C1=O | 11 |
| Cl.O=C(c1ccc(NS(=O)(=O)c2cccs2)cc1)N1CCN(c2ccccc2Cl)CC1 | 11.1 |
| COc1cc(-c2cc(C(=O)Nc3cccc(C(C)=O)c3)c3ccccc3n2)cc(OC)c1OC | 12.5 |
| O=C(NCCN=C1NS(=O)(=O)c2ccccc21)c1ccncc1 | 2.93 |
| COC(=O)CCC(=O)NNC(=O)c1ccc(Br)cc1 | 8.83 |
